Measurements: PubChem BioAssay AID463173 (ICCB-Longwood Screening Facility, Harvard Medical School, 2010)
Among all 52,000 compounds or so, about 4,300 (8.3%) were called active. No stated cut-off is given here; in the data, active means survival mostly below about 52% (no sharp cut-off); inactive means mostly above about 56%. Some of the results follow.

tested on: DeltatarO mutant; assay: growth inhibition of S. aureus wild type versus tarO mutant, primary screen, teichoic acid synthesis inhibitors, RN4220, OD600 (AID 463173); details: OD600, 18 h, active compounds read low, screened at 18.75 µg/mL (by protocol)

SMILES | survival
CC(C)c1nc2ccc(C(=O)NCCCN3CCN(c4cccc(Cl)c4)CC3)cc2o1 | inactive: 74%
Cc1cccc(N2CCN(C(=O)CN3C(=O)COc4ccc(S(=O)(=O)N5CCC(C)CC5)cc43)CC2C)c1 (stereo unspecified) | inactive: 67%
CCOC(=O)N1CCN(Cc2nc3cc([N+](=O)[O-])ccc3n2C(C)C)CC1 | inactive: 92%
CCOc1ccc(CCNC(=O)c2nc(-c3cccc(F)c3)n3c2CCCCC3)cc1OCC | inactive: 129%
COC(=O)c1ccc(S(=O)(=O)N(CCO)Cc2cc3cc(OC)c(OC)cc3[nH]c2=O)cc1 | inactive: 62%
CCOc1ccc(CNC(=O)c2cnc3sc(N4CCOCC4)nn3c2=O)cc1OC | inactive: 107%
O=C(O)c1ccc2c(c1)C(=O)NC2=O | inactive: 74%
COc1ccccc1NC(=O)CSc1nc2nccnc2c(=O)n1CCc1c[nH]c2ccccc12 | active: 38%
CCN(CC)CCNC(=O)CSc1nc2nc(C)c(Cc3ccccc3)c(C)n2n1 | inactive: 86%
Cc1[nH]c2ccccc2c1C(c1ccccc1)c1ccc(Cl)s1 (stereo unspecified) | active: 0%
COc1cccc(CNC(=O)Cc2ccc(NC(=O)N3CCSc4ncccc43)cc2)c1OC | inactive: 87%
O=C(Cc1ccccc1)N1CCC(c2nc3ccccc3[nH]2)CC1 | inactive: 79%
CCCOc1ccccc1C(=O)N1CCCCC1CCN1CCOCC1 (stereo unspecified) | inactive: 88%
O=c1[nH]c(NCCO)nc2sc3c(c12)CCCC3 | inactive: 72%
COc1ccc(NC(=O)N2CCCC2C(=O)Nc2ccccc2)cc1 (stereo unspecified) | inactive: 101%
O=C(Nc1ccccc1F)c1nc(SCc2ccc(F)cc2)ncc1Cl | inactive: 70%
N#Cc1cccc(C(c2nnnn2Cc2ccc(F)cc2)N2CCc3ccccc32)c1 (stereo unspecified) | inactive: 90%
CCN(C(=O)Cn1ncc2c(=O)oc3ccc(C)cc3c21)c1cc(OC)ccc1OC | inactive: 96%
CC1CCc2noc(NC(=O)c3ccccc3[N+](=O)[O-])c2C1 (stereo unspecified) | inactive: 107%
CCOC(=O)C1CCCN(S(=O)(=O)c2ccc(N3CCCCS3(=O)=O)cc2)C1 (stereo unspecified) | inactive: 55%
Cc1cc(C(F)F)n2nc(C(=O)Nc3cc(Cl)ccc3C)nc2n1 | inactive: 82%
CCc1cccc(C)c1NS(=O)(=O)c1cc(-c2cc(C)no2)ccc1C | inactive: 83%
COc1ccc(/C=C(\C#N)C(=O)NCc2ccco2)cc1C | inactive: 80%

SMILES | survival
Cc1ccc(-n2nc3ccc(NC(=O)c4oc5ccc(C)cc5c4C)cc3n2)cc1 | active: 38%
CCOc1ccc(OCC(=O)NCCS(=O)(=O)N2CCN(c3ccc(F)cc3)CC2)cc1 | inactive: 94%
CCc1ccccc1NC(=O)N1CCC(NC(=O)C(C)(C)C)CC1 | inactive: 92%
COc1ccc(NC(=O)c2ccco2)cc1NC(=O)C(C)C | inactive: 84%
O=C(CCC1CCCC1)N1CCc2c([nH]c3ccccc23)C1c1ccc(Cl)cc1 (stereo unspecified) | inactive: 74%
CCc1ccc(NC(=O)c2ccc(F)c(S(=O)(=O)NC3CCCCCC3)c2)cc1 | active: -2%
COc1cccc(CNC(=O)CSc2ncc3c(n2)-c2cc(Cl)ccc2N(C)S3(=O)=O)c1 | inactive: 92%
Cc1coc2c(C)c3oc(=O)c(CC(=O)NCc4ccccc4)c(C)c3cc12 | inactive: 71%
CCOc1ccccc1NC(=O)c1sc2nc(C)cc(C)c2c1N | inactive: 132%
Cc1c(Cl)cccc1NC(=O)CN1C(=O)COc2ccc(S(=O)(=O)N3CCCCCC3)cc21 | inactive: 62%
CCCN1C(=O)C(O)(CC(=O)c2ccc(OC)c(OC)c2)c2ccccc21 (stereo unspecified) | inactive: 146%
CN1CCN(C(=O)c2ccc3c(c2)N(Cc2cccc(Cl)c2)C(=O)c2ccccc2S3(=O)=O)CC1 | inactive: 72%
C/C(=C\C(=O)c1cccnc1)Nc1ccccc1O | inactive: 103%
O=C(Nc1ccc2nc(SCCOc3ccccc3)sc2c1)c1cccs1 | inactive: 83%
COc1ccc(C(=O)N(Cc2ccc(N(C)C)cc2)Cc2ccco2)cc1Cl | inactive: 72%
Cc1cc(-c2ccc(C)c(S(=O)(=O)Nc3ccccc3C(F)(F)F)c2)on1 | inactive: 120%
Cc1ccc2c(CC(=O)NCc3ccccc3)coc2c1C | inactive: 90%
OC(CNCc1ccccn1)COc1ccc(OCC(O)CNCc2ccccn2)cc1 (stereo unspecified) | inactive: 96%
Cc1ccc(C)n1-c1c(C(=O)NCC(C)c2ccccc2)sc2ncccc12 (stereo unspecified) | inactive: 69%
COc1cccc(CNC(=O)CN2C(=O)CSc3c2c(C)nn3-c2ccccc2)c1OC | inactive: 78%
COc1ccc(CNC(=O)Cn2c(=O)oc3cc(S(=O)(=O)N4CCC(C)CC4)ccc32)cc1 | inactive: 112%
CCOc1ccc(C(=O)Nc2cccc(OCc3cc(=O)n4ccccc4n3)c2)cc1 | inactive: 119%
Cc1ccccc1NS(=O)(=O)c1nnc(NC(=O)c2ccc(Cl)cc2)s1 | active: 41%

SMILES | survival
CCOC(=O)c1[nH]c(C)c(CCC(=O)Nc2ccc(C(C)=O)cc2)c1C | inactive: 72%
O=S(=O)(Nc1cccc(-c2ccc(N3CCCCCC3)nn2)c1)c1ccc(F)cc1 | inactive: 79%
Cc1cccc(CNS(=O)(=O)c2csc(C(N)=O)c2)c1 | inactive: 76%
O=C1C(c2cccc(Br)c2)N(CCc2ccccc2)C(=O)CN1C1CCCCC1 (stereo unspecified) | inactive: 102%
CCOc1cccc(CNCCNC(=O)c2nonc2N)c1 | inactive: 61%
COc1ccc(NC(=O)CCCn2c(=O)c3cccn3c3ccccc32)c(OC)c1 | active: 57%
COc1ccc(C(=O)Oc2c(Sc3ccc(Cl)cc3)c(C)nn2C(C)(C)C)cc1OC | inactive: 56%
O=C(NCCc1csc(-c2ccc(C(F)(F)F)cc2)n1)C(=O)Nc1cc(F)ccc1F | inactive: 102%
CCCCN(C)CCNC(=O)C1CCCN(S(=O)(=O)c2ccc3c(c2)oc(=O)n3C)C1 (stereo unspecified) | inactive: 104%
CCOC(=O)c1c(C)[nH]c(CCC(=O)NCCCN2CCN(c3cc(Cl)ccc3C)CC2)c1C | inactive: 99%
Cc1c(CCNC(=O)Cc2ccc(F)cc2)sc2nc(-c3ccc(F)cc3)nn12 | inactive: 80%
O=C(Cn1c(=O)c2ccccc2n(CC(=O)Nc2ccc(Cl)cc2)c1=O)NCCc1ccccc1 | inactive: 75%
CCc1ccccc1NC(=O)Cn1c(=O)n(CCCS(=O)(=O)C2CCCCC2)c(=O)c2ccccc21 | inactive: 86%
O=C(CCc1ccccc1)NCc1ccco1 | inactive: 88%
Cc1cccc(Cn2c(=O)n(Cc3ccc(C(=O)NC4CCN(Cc5ccccc5)CC4)cc3)c(=O)c3ccccc32)c1 | inactive: 86%
Oc1ccc(Nc2nc3ccccc3n3cnnc23)cc1 | inactive: 85%
Cc1[nH]c(=O)[nH]c(=O)c1NC(=O)CSc1nc2c(C)cccc2cc1C#N | inactive: 102%
CCOC(=O)c1cnc2c(C)cc(C)cc2c1Nc1cccc(C(=O)O)c1 | active: 5%
CCOCCCNC(=O)CN1C(=O)COc2ccc(S(=O)(=O)N3CCCCCC3)cc21 | inactive: 81%
Cc1ccc(C2c3c(-c4cc(C)ccc4O)n[nH]c3C(=O)N2Cc2ccco2)cc1 (stereo unspecified) | active: 1%
O=C(Nc1cccc2cccnc12)c1ccccc1[N+](=O)[O-] | inactive: 68%
COc1ccc2oc(=O)c(C(=O)NCCO)cc2c1 | inactive: 95%
CCCN1CC=C2C(C#N)=C(N)C(C#N)(C#N)C(c3ccc(OCC(N)=O)cc3)C2C1 (stereo unspecified) | inactive: 81%

SMILES | survival
Cc1ccc(S(=O)(=O)c2cnc(SCC(=O)Nc3cccc(Cl)c3)nc2N)cc1C | inactive: 54%
CCN(CC)C(=O)Cn1cc(SCC(=O)Nc2cccc(F)c2)c2ccccc21 | inactive: 109%
COc1ccc(C(CC(=O)O)NC(=O)c2cc3ccccc3oc2=O)cc1OC (stereo unspecified) | inactive: 60%
CSc1ccc(NC(=O)C(C)N2CCN(C)CC2)cc1 (stereo unspecified) | inactive: 82%
CCOC(=O)c1ccccc1NC(=O)NC(C)c1c(-n2cccc2)sc(C)c1C (stereo unspecified) | inactive: 57%
Cc1ccc(C)c(NC(=O)CN2C(=O)c3cccc4cccc2c34)c1 | inactive: 56%
O=C(O)/C=C/c1cccc(N=NN2CCCCC2)c1 | inactive: 92%
O=c1c2ccccc2n2c(-c3ccccc3O)nnc2n1Cc1ccc(F)cc1 | inactive: 95%
Cc1cccc(Cn2ccn(Cc3ccc(Cl)cc3)c(=O)c2=O)c1 | inactive: 121%
CCN(CC)C(=O)c1sc(NC(=O)c2nc3ncccn3n2)c(C(=O)OC)c1C | inactive: 137%
Cn1c(-c2ccc3c(c2)OCO3)cnc1NCc1cc(Cl)ccc1O | inactive: 70%
O=C(CSc1nc(-c2cccc(Cl)c2)nc2cc(=O)[nH]n12)Nc1ccccc1 | inactive: 71%
CC(=O)c1ccc(N2CCN(c3ccc(NC(=O)c4cccs4)cc3C(=O)O)CC2)cc1 | inactive: 68%
CC(C(=O)NCc1ccccc1Cl)n1ccc2cc(S(=O)(=O)N3CCCCC3)ccc21 (stereo unspecified) | inactive: 94%
COc1cc(C2C(C#N)=C(N)Oc3n[nH]c(C(F)(F)F)c32)ccc1OCC(N)=O (stereo unspecified) | inactive: 72%
Cc1ccc(NC(=O)CSc2nnc3nc(C)cc(C)n23)cc1 | inactive: 51%
Cc1ccc(-n2ncc(C(=O)NCCCN3CCCCC3)c2C2CCN(C(=O)OC(C)(C)C)CC2)c(C)c1 | active: 46%
O=C(C1c2ccccc2Oc2ccccc21)N1CCCCC1 | inactive: 81%
CCc1cccc(C)c1NC(=O)CCCn1c(=O)c2cccn2c2cccnc21 | inactive: 87%
COc1ccc(Cn2c(C(=O)O)c(CNCC(C)c3ccccc3)c3ccc(OC)cc32)cc1 (stereo unspecified) | inactive: 68%
Cc1ccc(C)c(N2CCN(C(=O)Nc3cn(CC(C)C)c(=O)c4ccccc34)CC2)c1 | inactive: 124%
COc1ccc(NC(=O)CN2C(=O)C(c3ccc(C(C)(C)C)cc3)=NC2(C)C)cc1Cl | inactive: 108%
